Test results from paper PMC3900686, “Mechanisms of the Scaffold Subunit in Facilitating Protein Phosphatase 2A Methylation” (PLoS ONE, 2014).

B1: A-subunit mutant A_D61A/E62K (natural protein)
chain: not shown
notes: PP2A scaffold Aα-subunit, double mutant D61A/E62K; Probably made as the wild-type A-subunit
B2: A-subunit mutant A_E100A/E101K (natural protein)
chain: not shown
notes: PP2A scaffold Aα-subunit, double mutant E100A/E101K; Probably made as the wild-type A-subunit

Molecular target: the molecule itself
Test: SEC; gel filtration chromatography of wild type and mutant A-subunits

| Protein | binding result |
| --- | --- |
| B1 | binds |
| B2 | binds |
